{"source": "the supplement of paper PMC11417369", "note": "Some of the results follow."}
{"system": "PfHDP1 homeodomain (GST-tagged)", "test": "gcPBM binding intensity (ln(normalized median fluorescence intensity)); higher = stronger DNA binding", "outline": "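GST-tagged P. falciparum DNA-binding domains produced in E. coli were incubated for 1 h on an Agilent 4 × 180k array of primer-extended double-stranded 36-bp intergenic genomic probes with negative controls. Binding intensity is the highest Masliner-normalised natural-log median intensity across replicate spots of either probe orientation, with bound protein detected by Alexa488 anti-GST antibody at 488 nm.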"}
{"sequence": "AGAAATAAGAAATATACACACATATAAATATAAATA [CACACA_site7342]", "gcPBM binding intensity (ln)": 6.5}
{"sequence": "ATATATATATATATATGTACTGAATAAAGAACAAAA [XGTACX_site5400]", "gcPBM binding intensity (ln)": 9.28}
{"sequence": "CGTATATGACAAAAGCGTACGCATCAGCAGAAAAAT [XGTACX_site6248]", "gcPBM binding intensity (ln)": 7.13}
{"sequence": "TATTTGTAAATCGATACACACATATAGATTAATATA [CACACA_site6237]", "gcPBM binding intensity (ln)": 6.42}
{"sequence": "ATAAGGAAGGGATGCACACAAAAGGGTACATAAGAA [CACACA_site4006]", "gcPBM binding intensity (ln)": 7.89}
{"sequence": "TTTGAATCCTTATATACACACATTATAAAATATTAT [CACACA_site6406]", "gcPBM binding intensity (ln)": 6.76}
{"sequence": "TATTGTATATACTATACACACACATACATACATACA [CACACA_site8172]", "gcPBM binding intensity (ln)": 7.44}
{"sequence": "AGAATATTTAATTCAACACACATACATATTTATTAA [CACACA_site5318]", "gcPBM binding intensity (ln)": 6.21}
{"sequence": "GGATAATATATTAGAACACACATATAGATGTAAAAA [CACACA_site6229]", "gcPBM binding intensity (ln)": 6.73}
{"sequence": "TACTTTATATAAAGATCAAAAAATAAATAATTATAA [TGCATGCA_negctrl_site446]", "gcPBM binding intensity (ln)": 6.36}
{"sequence": "GAAGCCCTATGAAAAGTGCGGTTCATGAACAAAGAA [GTGCAC_site9828]", "gcPBM binding intensity (ln)": 6.94}
{"sequence": "ATATATTTATATAAATGTACATACAGCACATTTATA [XGTACX_site4725]", "gcPBM binding intensity (ln)": 6.42}
{"sequence": "CAAATATACATATGTAGTACATGTTGTAGATAATTT [XGTACX_site2790]", "gcPBM binding intensity (ln)": 6.55}
{"sequence": "TTATATTATACATACACACCCATATAATATGTTTTT [CACACA_site4636]", "gcPBM binding intensity (ln)": 7.06}
{"sequence": "AGCTACACACCACAATGTACATAAATATATATGTGA [XGTACX_site1483]", "gcPBM binding intensity (ln)": 6.82}
{"sequence": "TCTTATGAATATCCCCGTACACATATATTTCTTATA [XGTACX_site6877]", "gcPBM binding intensity (ln)": 7}
{"sequence": "TTGTTTTTGTTCTTGGGTACTTAAATTATAAATGAT [XGTACX_site113]", "gcPBM binding intensity (ln)": 6.93}
{"sequence": "ATTTTATATCTGGATAGTACTTTAATATTTCAAATG [XGTACX_site7304]", "gcPBM binding intensity (ln)": 6.3}
{"sequence": "GTATTTATAAATTATAGTACTTTGCGTATCATATAT [XGTACX_site7358]", "gcPBM binding intensity (ln)": 6.75}
{"sequence": "GGATATTCATTAACCACACACACAAAAAAAATAAAA [CACACA_site3800]", "gcPBM binding intensity (ln)": 6.85}
{"sequence": "TATATATCATATGATACATGCAACAAAATGCATAAT [TGCATGCA_site205]", "gcPBM binding intensity (ln)": 6.89}
{"sequence": "TACTTACCAAAATACACACACACACTAGATATATAA [CACACA_site5096]", "gcPBM binding intensity (ln)": 6.93}
{"sequence": "ATGTATATTACTCATTGTACTTATATTTTCTTATTA [XGTACX_site8897]", "gcPBM binding intensity (ln)": 6.51}
{"sequence": "TAAAATGCAATCTGAACACACATATTTTTTTAATAT [CACACA_site6922]", "gcPBM binding intensity (ln)": 6.73}
{"sequence": "TACATCATACGAACAGTGCATATTATTATTGTTCTG", "gcPBM binding intensity (ln)": 7.69}
{"sequence": "ATGGATTATACGTGCACACATATATACAAATAAATA [CACACA_site640]", "gcPBM binding intensity (ln)": 9.86}
{"sequence": "ACCATTTGTAGGTAAACACACATTATTATTAATATC [CACACA_site2635]", "gcPBM binding intensity (ln)": 6.39}
{"sequence": "TTTATTACTATGTAAACACACATGCAATATATGTTA [CACACA_site1114]", "gcPBM binding intensity (ln)": 6.6}
{"sequence": "AAAAAGAAAAAAAAATGTACATAAAGTCTAATGATA [XGTACX_site4781]", "gcPBM binding intensity (ln)": 6.9}
{"sequence": "ATATTATATAAATACACACACACATGCATGCACATA [CACACA_site4236]", "gcPBM binding intensity (ln)": 10.3}
{"sequence": "AAAAAGAATAAATAAATAAATAAATATATATATATA [GTGCAC_negctrl_site584]", "gcPBM binding intensity (ln)": 8.96}
{"sequence": "TAAGAATTGAAAAAATGTACACAATATAAAATTGAA [XGTACX_site698]", "gcPBM binding intensity (ln)": 6.01}
{"sequence": "AAAACAAATAAGTAAACACACATATAAAATCTATAT [CACACA_site7262]", "gcPBM binding intensity (ln)": 6.39}
{"sequence": "CCTATTTATTTATACACACACATATATAAATAAATA [CACACA_site7417]", "gcPBM binding intensity (ln)": 7.03}
{"sequence": "TTATGTAAATGCTTATGTACTTATTACAATATTTTT [XGTACX_site4057]", "gcPBM binding intensity (ln)": 6.34}
{"sequence": "GAAAATATAAAAAAAAGTACATTTTCTCTAAATATA [XGTACX_site2441]", "gcPBM binding intensity (ln)": 6.28}
{"sequence": "AAAAAGGGTATTATTACACACACGTAAATATTAAGA [CACACA_site4233]", "gcPBM binding intensity (ln)": 6.57}
{"sequence": "CTATATAATATGAGCACACATAAGATTTGGTGTTAT [CACACA_site744]", "gcPBM binding intensity (ln)": 6.9}
{"sequence": "AAAAAAAAATTATATACACACATATAAATATATATA [CACACA_site1197]", "gcPBM binding intensity (ln)": 6.34}
{"sequence": "CAAATACAGAAACACACACACATATACATATATATA [CACACA_site3498]", "gcPBM binding intensity (ln)": 6.91}
{"sequence": "AAAATCTAGGTATTTATACACACTAAAATAATATAC [CACACA_site623]", "gcPBM binding intensity (ln)": 6.44}
{"sequence": "ATGTTATTAAAAAAGGGTACACATCTTTTATGTTAA [XGTACX_site812]", "gcPBM binding intensity (ln)": 6.54}
{"sequence": "AATATGTAATAGTGTACACATATATCTGTATTTATG [CACACA_site4252]", "gcPBM binding intensity (ln)": 6.61}
{"sequence": "ATTACACATATAGTAGTGCAATAACTCCAAAAAAAA", "gcPBM binding intensity (ln)": 9.55}
{"sequence": "TTTAAATATAATTGGAGTACTTATAATATATATATA [XGTACX_site7247]", "gcPBM binding intensity (ln)": 8.22}
